# Assay results reported in PMC12820563, “FoxP3 forms a head-to-head dimer in vivo and stabilizes its multimerization on adjacent microsatellites”.
# This is one part of the list.
# Molecular target: T1, MBP-FoxP1dN (Mus musculus, UniProt P58462 326-579)
# T1 sequence: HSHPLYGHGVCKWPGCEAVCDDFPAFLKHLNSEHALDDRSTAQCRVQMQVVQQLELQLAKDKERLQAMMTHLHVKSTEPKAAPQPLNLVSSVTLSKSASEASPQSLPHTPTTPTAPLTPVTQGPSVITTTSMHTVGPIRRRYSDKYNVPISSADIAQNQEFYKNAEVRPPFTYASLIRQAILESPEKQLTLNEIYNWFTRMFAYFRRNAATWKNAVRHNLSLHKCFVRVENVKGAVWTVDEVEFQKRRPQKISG
# Assay: PD-seq (MBP pull-down with sequencing); 20 mM Tris-HCl pH 7.5, 100 mM NaCl, 1.5 mM MgCl2, 0.4 uM protein, 0.1 uM dsDNA library, 30 min, room temperature, amylose pull-down; high values mean tight binding
# Settings: protein: recombinant; tags: His6-MBP; chain copies: 2; dsDNA, one strand shown
# How it was run: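 E. coli-expressed mouse FoxP3 or FoxP1 fragment, N-terminus removed and tagged with His6-MBP, was used at 0.4 µM against 0.1 µM of a Klenow-filled degenerate double-stranded DNA library. After 30 min at room temperature in Tris pH 7.5 buffer with NaCl and MgCl2, complexes were pulled down on amylose resin and washed three times. Binding is pull-down over input reads-per-million enrichment from pooled replicates of the proteinase K-released, PCR-barcoded, Illumina-sequenced DNA.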
row,Sequence,binding signal
1,GATGATTGTTCTCCCAGCTGATGAATTTACCACGTCGAGTAAACAAATTTTCCTAATCTTTCTGTTCAAGCGCCATCTAC,1.14 RPM ratio (pull-down/input)
2,GATGATTGTTCTCCCAGCTGATGAATTACTGACCTCGAGTAAACAAATTTTCCTAATCTTTCTGTTCAAGCGCCATCTAC,0.91 RPM ratio (pull-down/input)
3,GATGATTGTTCTCCCAGCTGATGAATTGCTCGCTTCGAGTAAACAAATTTTCCTAATCTTTCTGTTCAAGCGCCATCTAC,0.987 RPM ratio (pull-down/input)
4,GATGATTGTTCTCCCAGCTGATGAATTGGGGTTCTCGAGTAAACAAATTTTCCTAATCTTTCTGTTCAAGCGCCATCTAC,0.889 RPM ratio (pull-down/input)
5,GATGATTGTTCTCCCAGCTGATGAATTCATAGAGTCGAGTAAACAAATTTTCCTAATCTTTCTGTTCAAGCGCCATCTAC,0.833 RPM ratio (pull-down/input)
6,GATGATTGTTCTCCCAGCTGATGAATTTGGCCTTTCGAGTAAACAAATTTTCCTAATCTTTCTGTTCAAGCGCCATCTAC,0.919 RPM ratio (pull-down/input)
7,GATGATTGTTCTCCCAGCTGATGAATTATCCAAATCGAGTAAACAAATTTTCCTAATCTTTCTGTTCAAGCGCCATCTAC,1.08 RPM ratio (pull-down/input)
8,GATGATTGTTCTCCCAGCTGATGAATTGCAACATTCGAGTAAACAAATTTTCCTAATCTTTCTGTTCAAGCGCCATCTAC,1.75 RPM ratio (pull-down/input)
9,GATGATTGTTCTCCCAGCTGATGAATTAATGCCCTCGAGTAAACAAATTTTCCTAATCTTTCTGTTCAAGCGCCATCTAC,0.983 RPM ratio (pull-down/input)
10,GATGATTGTTCTCCCAGCTGATGAATTAACATTGTCGAGTAAACAAATTTTCCTAATCTTTCTGTTCAAGCGCCATCTAC,1.08 RPM ratio (pull-down/input)
11,GATGATTGTTCTCCCAGCTGATGAATTCCCGCATTCGAGTAAACAAATTTTCCTAATCTTTCTGTTCAAGCGCCATCTAC,1.17 RPM ratio (pull-down/input)
12,GATGATTGTTCTCCCAGCTGATGAATTTTGGGCATCGAGTAAACAAATTTTCCTAATCTTTCTGTTCAAGCGCCATCTAC,1.01 RPM ratio (pull-down/input)
13,GATGATTGTTCTCCCAGCTGATGAATTGCTTAGTTCGAGTAAACAAATTTTCCTAATCTTTCTGTTCAAGCGCCATCTAC,1.02 RPM ratio (pull-down/input)
14,GATGATTGTTCTCCCAGCTGATGAATTCTACCGCTCGAGTAAACAAATTTTCCTAATCTTTCTGTTCAAGCGCCATCTAC,0.79 RPM ratio (pull-down/input)
15,GATGATTGTTCTCCCAGCTGATGAATTGGTTTACTCGAGTAAACAAATTTTCCTAATCTTTCTGTTCAAGCGCCATCTAC,1.24 RPM ratio (pull-down/input)
16,GATGATTGTTCTCCCAGCTGATGAATTCTGGGAATCGAGTAAACAAATTTTCCTAATCTTTCTGTTCAAGCGCCATCTAC,0.916 RPM ratio (pull-down/input)
17,GATGATTGTTCTCCCAGCTGATGAATTTGCGATATCGAGTAAACAAATTTTCCTAATCTTTCTGTTCAAGCGCCATCTAC,1.19 RPM ratio (pull-down/input)
18,GATGATTGTTCTCCCAGCTGATGAATTCGATCTATCGAGTAAACAAATTTTCCTAATCTTTCTGTTCAAGCGCCATCTAC,0.885 RPM ratio (pull-down/input)
19,GATGATTGTTCTCCCAGCTGATGAATTGGAACACTCGAGTAAACAAATTTTCCTAATCTTTCTGTTCAAGCGCCATCTAC,0.927 RPM ratio (pull-down/input)
20,GATGATTGTTCTCCCAGCTGATGAATTTGCGCTCTCGAGTAAACAAATTTTCCTAATCTTTCTGTTCAAGCGCCATCTAC,0.972 RPM ratio (pull-down/input)

row,Sequence,binding signal
1,GATGATTGTTCTCCCAGCTGATGAATTAACTACGTCGAGTAAACAAATTTTCCTAATCTTTCTGTTCAAGCGCCATCTAC,0.969 RPM ratio (pull-down/input)
2,GATGATTGTTCTCCCAGCTGATGAATTTAGCAGCTCGAGTAAACAAATTTTCCTAATCTTTCTGTTCAAGCGCCATCTAC,0.958 RPM ratio (pull-down/input)
3,GATGATTGTTCTCCCAGCTGATGAATTATGTTAGTCGAGTAAACAAATTTTCCTAATCTTTCTGTTCAAGCGCCATCTAC,1.52 RPM ratio (pull-down/input)
4,GATGATTGTTCTCCCAGCTGATGAATTTCTGACTTCGAGTAAACAAATTTTCCTAATCTTTCTGTTCAAGCGCCATCTAC,0.826 RPM ratio (pull-down/input)
5,GATGATTGTTCTCCCAGCTGATGAATTGGACTGATCGAGTAAACAAATTTTCCTAATCTTTCTGTTCAAGCGCCATCTAC,0.841 RPM ratio (pull-down/input)
6,GATGATTGTTCTCCCAGCTGATGAATTGCGACGTTCGAGTAAACAAATTTTCCTAATCTTTCTGTTCAAGCGCCATCTAC,1.07 RPM ratio (pull-down/input)
7,GATGATTGTTCTCCCAGCTGATGAATTTCGGTTTTCGAGTAAACAAATTTTCCTAATCTTTCTGTTCAAGCGCCATCTAC,0.83 RPM ratio (pull-down/input)
8,GATGATTGTTCTCCCAGCTGATGAATTTATCACATCGAGTAAACAAATTTTCCTAATCTTTCTGTTCAAGCGCCATCTAC,1.42 RPM ratio (pull-down/input)
9,GATGATTGTTCTCCCAGCTGATGAATTGAAACCTTCGAGTAAACAAATTTTCCTAATCTTTCTGTTCAAGCGCCATCTAC,0.837 RPM ratio (pull-down/input)
10,GATGATTGTTCTCCCAGCTGATGAATTTTTGACTTCGAGTAAACAAATTTTCCTAATCTTTCTGTTCAAGCGCCATCTAC,0.887 RPM ratio (pull-down/input)
11,GATGATTGTTCTCCCAGCTGATGAATTGAGTATGTCGAGTAAACAAATTTTCCTAATCTTTCTGTTCAAGCGCCATCTAC,1 RPM ratio (pull-down/input)
12,GATGATTGTTCTCCCAGCTGATGAATTGACGAACTCGAGTAAACAAATTTTCCTAATCTTTCTGTTCAAGCGCCATCTAC,1.03 RPM ratio (pull-down/input)
13,GATGATTGTTCTCCCAGCTGATGAATTTTGTAAGTCGAGTAAACAAATTTTCCTAATCTTTCTGTTCAAGCGCCATCTAC,1.02 RPM ratio (pull-down/input)
14,GATGATTGTTCTCCCAGCTGATGAATTATGGGGCTCGAGTAAACAAATTTTCCTAATCTTTCTGTTCAAGCGCCATCTAC,0.8 RPM ratio (pull-down/input)
15,GATGATTGTTCTCCCAGCTGATGAATTTATGACATCGAGTAAACAAATTTTCCTAATCTTTCTGTTCAAGCGCCATCTAC,1.29 RPM ratio (pull-down/input)
16,GATGATTGTTCTCCCAGCTGATGAATTCCATAAATCGAGTAAACAAATTTTCCTAATCTTTCTGTTCAAGCGCCATCTAC,1.09 RPM ratio (pull-down/input)
17,GATGATTGTTCTCCCAGCTGATGAATTGCTAATATCGAGTAAACAAATTTTCCTAATCTTTCTGTTCAAGCGCCATCTAC,1.33 RPM ratio (pull-down/input)
18,GATGATTGTTCTCCCAGCTGATGAATTGCCGCGTTCGAGTAAACAAATTTTCCTAATCTTTCTGTTCAAGCGCCATCTAC,1.02 RPM ratio (pull-down/input)
19,GATGATTGTTCTCCCAGCTGATGAATTTCCCGGTTCGAGTAAACAAATTTTCCTAATCTTTCTGTTCAAGCGCCATCTAC,0.771 RPM ratio (pull-down/input)
20,GATGATTGTTCTCCCAGCTGATGAATTGTCGATGTCGAGTAAACAAATTTTCCTAATCTTTCTGTTCAAGCGCCATCTAC,1.05 RPM ratio (pull-down/input)
